Assay results: the supplement of paper PMC3334620
In all, about 33,000 sequences were measured (“E-score (-0.5 to 0.5)”: median about -0.012, highest 2% from about 0.29 on). Some of the results follow.

molecular target: T1, Ybr033w (UniProt P38073); assay: PBM E-score (8-mer binding enrichment) (E-score (-0.5 to 0.5)); higher = stronger / more preferred TF binding; most listed sequences are background and not binding sites; details: protein concentration: 200 nM; construct: GST-full length
T1 sequence: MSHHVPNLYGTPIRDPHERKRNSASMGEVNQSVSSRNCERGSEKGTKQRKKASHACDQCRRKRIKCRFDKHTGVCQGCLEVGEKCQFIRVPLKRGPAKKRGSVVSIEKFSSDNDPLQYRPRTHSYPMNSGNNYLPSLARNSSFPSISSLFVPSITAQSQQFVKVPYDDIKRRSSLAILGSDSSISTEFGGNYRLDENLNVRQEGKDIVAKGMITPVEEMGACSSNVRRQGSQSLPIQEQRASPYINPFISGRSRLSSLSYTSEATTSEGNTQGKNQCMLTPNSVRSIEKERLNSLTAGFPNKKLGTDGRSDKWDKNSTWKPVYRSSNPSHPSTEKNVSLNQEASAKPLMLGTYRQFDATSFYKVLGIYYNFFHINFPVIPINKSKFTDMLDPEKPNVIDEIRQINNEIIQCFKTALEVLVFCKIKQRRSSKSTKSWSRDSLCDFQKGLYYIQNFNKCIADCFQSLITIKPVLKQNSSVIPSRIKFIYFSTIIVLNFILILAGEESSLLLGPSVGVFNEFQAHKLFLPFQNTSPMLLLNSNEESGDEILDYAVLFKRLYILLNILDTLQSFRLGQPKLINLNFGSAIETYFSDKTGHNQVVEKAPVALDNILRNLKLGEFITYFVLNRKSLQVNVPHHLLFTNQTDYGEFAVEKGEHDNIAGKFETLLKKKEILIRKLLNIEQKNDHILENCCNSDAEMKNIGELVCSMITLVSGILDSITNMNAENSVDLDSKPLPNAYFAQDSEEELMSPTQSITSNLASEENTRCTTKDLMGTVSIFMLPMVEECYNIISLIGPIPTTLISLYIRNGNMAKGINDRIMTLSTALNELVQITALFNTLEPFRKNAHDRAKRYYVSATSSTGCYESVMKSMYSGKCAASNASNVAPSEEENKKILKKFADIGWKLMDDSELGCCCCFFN
Method: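 Universal 'all 10-mer' protein binding microarrays (Agilent AMADID 015681) probed with GST-tagged S. cerevisiae TFs (full-length or DBD) made by in vitro transcription/translation (PURExpress), about 100-200 nM. Bound TF was detected with fluorescent anti-GST. Each ungapped 8-mer (which stands for itself and its reverse complement) is scored by the PBM enrichment score (E-score), a modified Wilcoxon-Mann-Whitney statistic from -0.5 to +0.5, computed with the Universal PBM Analysis Suite. Scale: above 0.35 generally sequence-specific binding.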

Point of comparison: AGATATTA, “PBM E-score” value 0.215. Against it:
- TAGCCATA — lower, 0.00786
- ATGGGAGC — lower, -0.0911
- ACGCTAGC — lower, -0.242
- ACGAACGG — lower, 0.0298
- CAAGCGAG — lower, 0.0936
- CATCCCCA — lower, -0.12
- GCATAGAA — lower, 0.132
- AATAGAGA — lower, 0.0991
- CATTAATA — higher, 0.321
- ACGTCTCG — lower, -0.0293
- GTGGAGTA — lower, -0.0194
- ACCCAGTA — lower, -0.18
- AACCGTGG — lower, -0.115
- CCGCGCGC — lower, -0.0806
- CTGCTGCC — lower, -0.219
- ATCTCTTA — lower, -0.0332
- GGTAGACA — lower, -0.0144
- ATGTGCAC — lower, -0.113
- AGAGTCCC — lower, -0.244
- AAGCAGCT — lower, 0.0186
- ATTTACAG — lower, 0.149
- AAGTGTCT — lower, 0.0707
- AAAGAGTC — lower, -0.181
- GCACCGCA — lower, -0.226
- ACAGATTC — lower, 0.088
- GTACATAA — lower, 0.171
- AGGTGAAG — lower, -0.0382
- TGTCGACA — lower, -0.2
- AAGGAATT — lower, 0.122
- ACTGCAGC — lower, -0.136
- ATCGGCAA — lower, 0.00152
- ACCGCCAC — lower, -0.142
- GCCGCCCC — lower, -0.239
- AACGCGGG — lower, 0.048
- AATGAAAC — lower, 0.169
- CACCGAGG — lower, -0.15
- GATCAAGA — lower, 0.0926
- CATCAGCC — lower, -0.0333
- ACCCTGGG — lower, -0.272
- ACCTCCTG — lower, -0.0317
- AAACTCGG — lower, 0.0555
- CCAGCCAG — lower, -0.359
- TACCTTCA — lower, -0.0427
- GCGATCCA — lower, 0.0348
- AGACGCCA — lower, 0.00347
- CGACGCCC — lower, -0.0903
- CCGCTTAA — lower, 0.118
- ACCTGGGG — lower, -0.294
- AGGCTATA — lower, 0.0337
- GGACTGGA — lower, -0.0697
- TAAGAGTA — lower, 0.187
- CCAGAGGC — lower, -0.183
- CTGCATTA — lower, -0.0228
- CATGATCA — lower, 0.106
- AAGAGCAG — lower, -0.163
- GATCGTCA — lower, -0.00934
- GGTTTATA — lower, -0.0134
- ACTCGGAT — lower, 0.0587
- GCACAACA — lower, 0.0301
- TCGCTCCA — lower, -0.0972
- AAGCTATG — lower, 0.0673
- GGTCGCTA — lower, -0.0803
- AGGACGCA — lower, -0.195
- CCCCGCGG — lower, -0.295
- ACCACTGC — lower, -0.18
- AGAGAACT — lower, -0.0198
- CCGGTGTC — lower, -0.13
- ACAGCGTG — lower, -0.00758
- ACTTGGTG — lower, -0.0338
- GACTTCAA — lower, -0.116
- CGCACGAA — lower, 0.0656
- AGCCCGAA — lower, -0.145
- CAAGTCGA — lower, -0.0109
- CATTTTAA — lower, 0.16
- CCGCGATA — lower, 0.0153
- AGCTCCAG — lower, -0.227
- GCCGGTTA — lower, -0.0903
- GCACGAGA — lower, 0.0172
- CACGTGAC — lower, -0.101
- CAATTAGA — lower, 0.206
- GCTTTTGA — lower, -0.134
- CATCATGG — lower, -0.083
- AATAATCA — higher, 0.234
- CTCTTCAC — lower, -0.0171
- CCATCGGC — lower, -0.154
- ACGTGAGT — lower, -0.186
- ACTGGGAA — lower, 0.111
- GAAGTATC — lower, 0.152
- AAGTTATG — lower, 0.206
- ATCTACGA — lower, 0.0113
- CAACCAGG — lower, -0.151
- AATCGCTC — lower, -0.0025
- CCGGTAGA — lower, -0.224
- ACCTATAT — lower, 0.214
- AGAGCACA — lower, -0.151
- TACGACCA — lower, -0.0253
- AGGAGACG — lower, -0.304
- GCGGGATA — lower, -0.0574
- CGCAAGAC — lower, -0.0908
- ATACATAA — higher, 0.309
- GCCATATA — lower, 0.0556
- CCACACAG — lower, 0.00077
- GGTAAATA — higher, 0.225
- CCAATTCA — lower, 0.0518
- CTTAAGTA — lower, 0.128
- CATGTGCA — lower, -0.249
- AGCATGGC — lower, -0.279
- AGTTACCA — lower, 0.0265
- CCTGTACA — lower, 0.141
- ACGGAGGG — lower, -0.183
- GCTAGACC — lower, -0.193
- ATGCAGGA — lower, -0.0288
- GTTACGTA — lower, -0.089
- CATAGAAA — higher, 0.23
- AACGATGT — lower, 0.138
- CAGGCATG — lower, -0.1
- AGCTCCCT — lower, -0.289
- GCTCTGGA — lower, -0.0114
- AGCGATCC — lower, -0.122
- CAGCGACG — lower, -0.0762
- CCAAAGAC — lower, -0.148
- ATAACCAG — lower, 0.105
- ATCGCCAG — lower, 0.0383
- AATGAGAT — higher, 0.263
- AAGCGTAG — lower, -0.0571
- GTAGATAA — higher, 0.333
- ATATCAGA — higher, 0.289
- TCCTCCGA — lower, -0.203
- TCGCCGAA — lower, 0.0469
- CGTGTTTC — lower, -0.018
- TAAGTCCA — lower, 0.0338
- ACACAAGT — lower, 0.126
- GACGCCCC — lower, -0.25
- CCAGATGC — lower, -0.15
- ATTCTCTA — lower, 0.159
- CCGGACCG — lower, -0.172
- TACAAAGA — higher, 0.218
- ACCGATAG — lower, -0.096
- AGCAATCC — lower, -0.128
- CCGGCGGA — lower, -0.00079
- CATCAGAG — lower, 0.059
- GCTTGAAC — lower, 0.167
- ACGGTGCA — lower, -0.0212
- ACTGGGCG — lower, -0.197
- CTCGGGAC — lower, -0.0856
- TACTGTGA — lower, 0.072
- GGGACACC — lower, -0.308
- ACGTTGTA — lower, 0.0347
- CAAGTGCC — lower, -0.0731
- GCAATGGC — lower, -0.272
- TCAAGGCA — lower, -0.0983
- CCTCGGAG — lower, -0.0227
- AGCCAGAA — lower, -0.153
- AACTGAAG — lower, 0.0551
- AGACAGTC — lower, -0.0329
- CAATATTC — higher, 0.219
- CTCATTTA — lower, 0.0742
- ATGCGGGG — lower, -0.234
- CCAGGAAC — lower, -0.103
- CAGGATAA — higher, 0.274
- AGGTCCAA — lower, -0.196
- AACGGATT — higher, 0.255
- CTCAGCCA — lower, -0.0871
- CACACCCG — lower, -0.165
- GCCAAAAC — lower, -0.132
- TAATAAAA — higher, 0.365
- CAGGGCCA — lower, -0.313
- CTGATTTC — lower, -0.0423
- ACGATCCT — lower, 0.0631
- AACGCTAT — lower, -0.00386
- AAGAGGGC — lower, -0.0933
